Consider 23 molecules from article PMC4336329 (PLoS ONE, 2015).

Among all 310,000 compounds or so, about 2,200 (0.71%) showed an effect of 50% or more. Effects have a minus sign here. This is one part of the list.

For this assay, the target named is human ether-à-go-go-related gene (hERG) potassium channel (human, UniProt Q12809). Kind of assay: primary screen, population patch clamp on CHO cells stably expressing hERG.
Chain of human ether-à-go-go-related gene (hERG) potassium channel (Q12809 whole entry, looked up): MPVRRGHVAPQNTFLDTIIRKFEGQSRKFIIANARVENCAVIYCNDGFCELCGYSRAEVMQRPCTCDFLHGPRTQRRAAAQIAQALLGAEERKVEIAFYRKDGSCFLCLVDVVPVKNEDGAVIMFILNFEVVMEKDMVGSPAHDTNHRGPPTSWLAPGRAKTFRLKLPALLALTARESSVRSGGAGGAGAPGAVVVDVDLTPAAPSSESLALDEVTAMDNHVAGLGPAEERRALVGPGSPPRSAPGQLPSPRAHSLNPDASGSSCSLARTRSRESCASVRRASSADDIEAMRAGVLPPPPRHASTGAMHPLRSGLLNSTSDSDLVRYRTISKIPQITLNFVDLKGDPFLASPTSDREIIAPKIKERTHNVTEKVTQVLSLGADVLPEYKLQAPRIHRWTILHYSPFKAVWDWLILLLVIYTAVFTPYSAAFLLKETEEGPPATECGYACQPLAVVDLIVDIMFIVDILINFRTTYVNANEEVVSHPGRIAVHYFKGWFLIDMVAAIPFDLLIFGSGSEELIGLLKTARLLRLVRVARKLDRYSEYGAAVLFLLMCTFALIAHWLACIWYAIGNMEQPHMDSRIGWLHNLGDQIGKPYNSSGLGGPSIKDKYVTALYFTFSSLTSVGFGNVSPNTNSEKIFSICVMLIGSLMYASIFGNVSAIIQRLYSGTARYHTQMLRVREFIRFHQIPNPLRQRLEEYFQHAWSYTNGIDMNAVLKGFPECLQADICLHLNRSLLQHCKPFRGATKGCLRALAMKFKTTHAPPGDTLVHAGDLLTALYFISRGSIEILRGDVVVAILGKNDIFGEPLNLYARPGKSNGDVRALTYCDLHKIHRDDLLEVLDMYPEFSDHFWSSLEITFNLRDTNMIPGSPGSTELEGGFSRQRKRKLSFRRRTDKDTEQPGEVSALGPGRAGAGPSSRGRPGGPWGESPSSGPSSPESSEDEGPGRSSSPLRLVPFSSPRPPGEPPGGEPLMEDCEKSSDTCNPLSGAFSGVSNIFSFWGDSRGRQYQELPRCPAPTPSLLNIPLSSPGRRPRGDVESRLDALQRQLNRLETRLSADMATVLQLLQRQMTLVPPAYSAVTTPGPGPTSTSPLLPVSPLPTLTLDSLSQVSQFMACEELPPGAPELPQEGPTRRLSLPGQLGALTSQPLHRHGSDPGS
`CCn1c(=O)n(CC)c2cc(N3CCCC3)c(NC(=O)c3cc(Br)ccc3OC)cc21`: the “hERG current change (%, negative = inhibition) at 1uM” value was determined as 1.29%.

Turning to `CC1(C)CC(=O)C2=C(C1)N(CCN1CCOCC1)C1=C(C(=O)CC(C)(C)C1)C2c1ccc(Cl)cc1`, the “hERG current change (%, negative = inhibition) at 1uM” value is given as -0.278%. To `O=C1CC(C(=O)Nc2ccc(C(=O)N3CCOCC3)cc2)C2(CCCCC2)O1` (centres unmarked) belongs 7.01%; to `Cc1ccc2nc(SCC(=O)Nc3ncccn3)[nH]c2c1`, 9.56%; to `Cc1cccc(NC(=O)CSc2nnc([C@@H]3CCCN3C(=O)OC(C)(C)C)o2)c1C`, 5.41%. The result for `CC(=O)c1cccc(NC(=O)CCn2c(=O)oc3ccccc32)c1` reads 0.785%; that for `Cn1c(SCC(=O)NCc2ccc3c(c2)OCO3)nnc1-c1c[nH]c2ccccc12`, -10.1%. In the case of `CCN(CC)CC#CCC(OC)(c1ccccc1)c1ccccc1.Cl`, the “hERG current change (%, negative = inhibition) at 1uM” value is given as 8.5%.

For `CCOC(=O)c1oc2ccccc2c1NC(=O)COc1ccc(F)cc1`, the “hERG current change (%, negative = inhibition) at 1uM” value is recorded as 12.4%. To `COC(=O)c1c(NC(=O)c2ccc(N(C)S(=O)(=O)c3ccc(C)cc3)cc2)sc2c1CCCC2` belongs 11.2%; to `CC(=O)Nc1cccc(NC(=O)c2cccc(S(=O)(=O)N3CCN(Cc4ccccc4)CC3)c2)c1`, 13.8%; to `COc1ccc(CC(=O)Nc2cc(S(=O)(=O)N3CCCCC3)ccc2C)cc1OC`, 13.5%. Consider `O=C(NCC1CCCO1)c1cccc(NS(=O)(=O)c2ccc(Br)cc2)c1` (centres unmarked), for which the “hERG current change (%, negative = inhibition) at 1uM” value stood at 13%.

Regarding `N=C1C(c2ccccc2)=C(O)CN1c1cccc2ccccc12`, the “hERG current change (%, negative = inhibition) at 1uM” value amounted to 7.25%.

For the molecule `O=S(=O)(Nc1nc(-c2sccc2Cl)cs1)c1cc(Cl)ccc1Cl`, the “hERG current change (%, negative = inhibition) at 1uM” value was 14.2%. To `COc1ccc(CCN(C)c2ncnc3sccc23)cc1OC` belongs 13.8%. The result for `Cc1nc(NS(=O)(=O)c2ccc(Cl)s2)c2c3c(sc2n1)CCCC3` reads 9.59%; that for `Cc1ccn(C(=O)c2ccc(NC(=O)CC(C)C)cc2)n1`, 1.23%. The result for `CCC(=O)NC(=S)Nc1cccc(-c2nc3ncccc3o2)c1` reads 19.8%; that for `Cc1cc(C(=O)Nc2ccc(N3CCCCC3)cc2)no1`, 13.4%. As to `S=C1SCN(Cc2ccccn2)CN1Cc1ccco1`, the “hERG current change (%, negative = inhibition) at 1uM” value amounted to 6.34%. For `CCCc1nn(C)c2c(=O)[nH]c(-c3cc(S(=O)(=O)N(CCO)CCO)ccc3OCC)nc12`, the “hERG current change (%, negative = inhibition) at 1uM” value is 7.71%. To `COCc1ccc(C(=O)N2CCCC(Nc3ccc(F)c(F)c3)C2)s1` (centres unmarked) belongs 16.2%.
